Source: the antibiotic and cytotoxicity screens of Wong et al. (2023)
The list shows a part of the results.

Test system: HSkMC (human skeletal muscle cells)
Assay: cytotoxicity call (relative viability < 0.9)
Conditions: 10 µM

| SMILES | cytotoxicity call |
| --- | --- |
| C[C@@H]1CN([C@H](C)CO)C(=O)c2cc(NC(=O)Nc3ccc(F)cc3)ccc2O[C@@H](C)CCCCO[C@@H]1CN(C)Cc1ccc(C(F)(F)F)cc1 | inactive |
| CC1(C)CC[C@]2(C(=O)O[C@@H]3O[C@H](CO)[C@@H](O)[C@H](O)[C@H]3O)CC[C@]3(C)C(=CC[C@H]4[C@@]5(C)CC[C@@H](O[C@@H]6O[C@H](C(=O)O)[C@@H](O[C@@H]7OC[C@@H](O)[C@H](O)[C@H]7O)[C@H](O[C@@H]7OC[C@](O)(CO)[C@H]7O)[C@H]6O)C(C)(C)[C@@H]5CC[C@]43C)[C@@H]2C1 | inactive |
| C[C@@H]1CN([C@@H](C)CO)S(=O)(=O)c2ccc(/C=C/c3ccccc3)cc2O[C@@H]1CN(C)C(=O)Nc1cc(F)ccc1F | inactive |
| COc1ccc(NC(=O)N(C)C[C@H]2Oc3ccc(NC(=O)CCCCCC(=O)Nc4ccccc4N)cc3CC(=O)N([C@@H](C)CO)C[C@H]2C)cc1 | inactive |
| C[C@@H]1CN([C@@H](C)CO)C(=O)Cc2cc(NS(C)(=O)=O)ccc2O[C@@H]1CN(C)S(=O)(=O)c1ccc(Cl)cc1 | inactive |
| Cc1noc(C)c1NC(=O)Nc1cccc2c1O[C@H](CN(C)Cc1ccc(Oc3ccccc3)cc1)[C@H](C)CN([C@H](C)CO)C2=O | inactive |
| C[C@@H]1CCCCO[C@@H](CN(C)C(=O)c2ccccc2)[C@H](C)CN([C@@H](C)CO)C(=O)c2cc(NC(=O)Nc3cccc4ccccc34)ccc2O1 | inactive |
| C[C@@H]1CN([C@@H](C)CO)C(=O)c2cc(NC(=O)Cc3cn(C)c4ccccc34)ccc2O[C@H]1CN(C)Cc1ccc(C(=O)Nc2ccccc2N)cc1 | inactive |
